{"source": "PubChem BioAssay (NCATS)", "note": "Inconclusive results, whose numbers are uncertain, are shown with a selection of clear calls. Potencies of inconclusive entries are left out as doubtful fits. The source made the active and inactive calls. Calls follow the shape of the dose curve; as a rule, active = well fitted inhibition curve with a large enough effect; inconclusive = small, poorly fitted or top-dose-only effect; inactive = flat fitted curve, though single readings scatter. Potency is read from the fitted curve at half-maximal effect; tags tell the direction and shape of the fitted curve."}
{"molecular_target": "Calcium and integrin-binding protein 1 (Homo sapiens) (UniProt Q99828)", "sequence (Q99828 whole entry, looked up)": "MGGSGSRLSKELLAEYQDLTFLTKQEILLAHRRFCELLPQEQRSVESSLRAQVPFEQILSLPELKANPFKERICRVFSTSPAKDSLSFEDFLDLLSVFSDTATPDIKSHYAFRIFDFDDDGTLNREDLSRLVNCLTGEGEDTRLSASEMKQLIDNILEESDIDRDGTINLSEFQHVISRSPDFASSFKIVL", "test": "Primary qHTS for Identification of Calcium Integrin Binding Protein 1 (CIB1) Competitor (AID 1508620)", "settings": "CIB1-GST / FITC-alphaIIb peptide fluorescence polarization; series mostly up to 114 µM", "in_short": "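CIB1-GST (1 uM final) and compound incubated 15 min at room temperature before adding FITC-alphaIIb peptide tracer (100 nM final). Competition for binding read by fluorescence polarization (ex 480, em 540) after another 15 min at room temperature.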"}
{"compound": "COc1ccc(-c2ccc3ncnc(NCc4cccs4)c3c2)cc1OC", "Potency": "inactive"}
{"compound": "N#Cc1nc(Nc2cccc(F)c2)nc(NC2CCCC2)n1", "Potency": "inactive"}
{"compound": "C=C1C(=O)O[C@H]2[C@H]1[C@@H](OC(=O)C(C)CO)C[C@@]1(C)[C@H](O)CCC(=O)[C@H]21", "note": "(stereo partly drawn)", "Potency": "inconclusive [inhibitor, full curve, poor fit]"}
{"compound": "N#Cc1ccc(S(=O)(=O)Nc2cnccc2C(=O)Nc2nc(-c3ccccc3)cs2)cc1", "Potency": "inconclusive [inhibitor, partial curve, poor fit]"}
{"compound": "Cn1nnnc1Sc1ncnc2scc(-c3cccc(F)c3)c12", "Potency": "inactive"}
{"compound": "CN(C)c1cccc(N2CCN(c3nn4c(=O)c5ccccc5nc4s3)CC2)c1", "Potency": "inconclusive [inhibitor, partial curve, poor fit]"}
{"compound": "CC(=O)NC(c1ccco1)c1cc(Cl)c2ccc(N(C)C)nc2c1O", "note": "(stereo not drawn)", "Potency": "inconclusive [inhibitor, partial curve]"}
{"compound": "Cc1ccnc(NC(=S)N2CCN(c3ccc(Cl)c(Cl)c3)CC2)c1", "Potency": "inactive"}
{"compound": "CCOC(=O)c1ccc(O)c2ncc(-c3ccc(C(=N)N)cc3)cc12", "Potency": "inconclusive [inhibitor, partial curve, poor fit]"}
{"compound": "Cc1cc(C)nc(NC(=S)N2CCN(c3ncccc3C#N)CC2)c1", "Potency": "inactive"}
{"compound": "O=C(O)c1ccc(S(=O)(=O)N[C@@H](Cc2ccc(O)cc2)C(=O)O)cc1", "Potency": "inconclusive [inhibitor, partial curve, poor fit]"}
{"compound": "Cc1ccc(OCCn2c(CCNC(=O)c3ccsc3)nc3ccccc32)cc1", "Potency": "inconclusive [inhibitor, full curve, poor fit]"}
{"compound": "COc1cc(NS(=O)(=O)c2cccc([N+](=O)[O-])c2)c2ncccc2c1", "Potency": "inconclusive [inhibitor, partial curve, poor fit]"}
{"compound": "Cc1ccc(N[S+](=O)([O-])c2cc3c(cc2N[C@@H](C)CO)NC(=O)CC3)cc1N[C@@H](C)CO", "Potency": "inconclusive [inhibitor, partial curve, poor fit]"}
{"compound": "CN1CCc2ccc3c4c2[C@]1(C)Cc1cccc(c1-4)OCO3", "Potency": "active: 39.8 µM"}
{"compound": "Cc1ccc(S(=O)(=O)Nc2cc(S(=O)(=O)c3ccc(C)cc3)c(O)c3cccnc23)cc1", "Potency": "inconclusive [inhibitor, partial curve, poor fit]"}
{"compound": "Cc1ccnc(NC(=S)N2CC[C@@H](Nc3cccc(C(F)(F)F)c3)C2)c1", "Potency": "inconclusive [inhibitor, partial curve, poor fit]"}
{"compound": "CC(=O)Nc1sc2c(c1-c1nc3ccccc3s1)CCN(C(C)C)C2", "Potency": "inconclusive [inhibitor, partial curve]"}
{"compound": "CC(C)COc1ccc(-c2ccc(=O)n(CC(=O)NCCc3ccccc3)n2)cc1", "Potency": "inconclusive [inhibitor, partial curve, poor fit]"}
{"compound": "Cc1cc(C)nc(NC(=S)N2CCN(c3cccc4ccncc34)CC2)c1", "Potency": "inconclusive [inhibitor, partial curve, poor fit]"}
{"compound": "COc1ccccc1-c1ncc(C)c(NCc2ccc(-c3cccnc3)cc2)n1", "Potency": "inactive"}
{"compound": "CC(OC(=O)c1ccc(S(C)(=O)=O)c([N+](=O)[O-])c1)C(=O)NC1C2CC3CC(C2)CC1C3", "note": "(stereo not drawn)", "Potency": "inconclusive [inhibitor, full curve]"}
{"compound": "Cc1cc2c(s1)c1c(C)nn(Cc3ccc(F)cc3)c(=O)c1n2C", "Potency": "inactive"}
{"compound": "COc1cccc(CNc2ccc(S(=O)(=O)Nc3ccc(C4CCNCC4)cc3)cc2)c1O", "Potency": "inconclusive [inhibitor, partial curve, poor fit]"}
{"compound": "CC1=C(C(=O)N(C)C)C(c2ccccc2Br)N=C(Nc2nc3ccccc3o2)N1", "note": "(stereo not drawn)", "Potency": "inconclusive [inhibitor, partial curve, poor fit]"}
{"compound": "O=C(Nc1ccc(Cl)c([N+](=O)[O-])c1)Nc1nnc(C2CCCCC2)s1", "Potency": "inactive"}
{"compound": "C#CCCC(=O)Nc1sc2c(c1-c1nc3ccccc3s1)CCN(C(C)C)C2", "Potency": "inconclusive [inhibitor, full curve, poor fit]"}
{"compound": "Cc1ccnc(NC(=S)N2CCc3ccccc3C2)c1", "Potency": "inconclusive [inhibitor, partial curve, poor fit]"}
